In PubChem BioAssay AID1346428 (National Center for Advancing Translational Sciences (NCATS), 2018) one finds activation data, which are given here for 82 molecules.

Molecules are shown by their SMILES. Screen size: about 48,000 compounds; about 1,200 (2.5%) were called active. About 2% were inconclusive and are not listed.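 The calls were made as follows: active = activation of at least 60% and not above a set upper limit (about 1 call in 100 departs from these limits); inconclusive = activation of 40% to 60%, or above that upper limit; inactive = activation under 40%.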 This is one part of the list.

UniProt O75388, sequence (O75388 whole entry, looked up, the tested form may be a part): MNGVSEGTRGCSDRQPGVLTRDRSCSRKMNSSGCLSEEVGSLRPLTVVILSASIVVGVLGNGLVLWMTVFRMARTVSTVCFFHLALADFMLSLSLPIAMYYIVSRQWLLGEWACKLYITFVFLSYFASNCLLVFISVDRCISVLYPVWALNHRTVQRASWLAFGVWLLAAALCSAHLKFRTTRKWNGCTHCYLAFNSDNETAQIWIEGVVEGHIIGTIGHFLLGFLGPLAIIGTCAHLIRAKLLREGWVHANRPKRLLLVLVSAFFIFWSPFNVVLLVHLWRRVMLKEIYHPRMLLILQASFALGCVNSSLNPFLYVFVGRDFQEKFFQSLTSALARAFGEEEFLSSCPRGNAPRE

The target of this experiment is Probable G-protein coupled receptor 32 (Homo sapiens) (UniProt O75388). Description: qHTS for Agonists of Human Resolvin D1 Receptor DRV1. As to conditions: CHO-K1 GPR32 beta-arrestin PathHunter luminescence, 90 min; at 76.9 µM; hits give high values; zero percent set by DMSO-only wells. Put shortly:
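PathHunter enzyme-fragment complementation, CHO-K1 GPR32 stable line; 2,500 cells/well, overnight attach; cpd 90 min 37 °C 5% CO2; detection reagent 1 h RT; chemiluminescence. DMSO = EC0.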
As to `Cc1ccc(C)c(N2CCN(S(=O)(=O)c3cc(-c4cc(C)no4)ccc3C)CC2)c1`, the activation is inactive: -14.6%.

With `O=C(CN1C(=O)C(c2ccc(F)cc2)=NC12CCCCCC2)Nc1ccccc1Cl`, the activation is inactive: -27%.

Turning to `Cc1cc(C)c(NC(=O)Cn2nc(-c3ccncc3)ccc2=O)c(C)c1`, the activation was inactive: -7.01%.

For the molecule `CCCn1c(=O)n(-c2ccccc2Cl)c(=O)c2sc3ccccc3c21`, the activation is inactive: -9.97%.

In the case of `COc1ccc(-c2ccc3c(N)c(C(=O)Nc4ccc(C(F)(F)F)cc4)sc3n2)cc1OC`, the activation is inactive: 3.17%.

As to `CC1=Nc2cc(C(=O)NCc3ccccc3Cl)ccc2Sc2c(C)ccc(C)c21`, the activation is inactive: 10.3%.

As for `CCOc1ccc(CCNC(=O)c2cn(C)c3ccc(S(=O)(=O)N4CCCCC4)cc3c2=O)cc1OCC`, the activation was inactive: -3.48%.

With `Cc1cc(C)c(NC(=O)c2sc3nc(C)cc(C)c3c2NC(=O)c2ccccc2)c(C)c1`, the activation is inactive: -4.95%.

Take `CCOC(=O)c1c(C)[nH]c(C)c1S(=O)(=O)N1CCC(C(=O)Nc2cc(Cl)ccc2OC)CC1`: the activation is inactive: 8.23%.

As to `CC1=C(c2ccc(C)c(C)c2)S(=O)(=O)NC1=NCc1ccccc1Cl`, the activation is inactive: -4.77%.

For the molecule `COc1ccccc1C(=O)Nc1cccc(C(=O)OCc2cc(=O)n3cc(C)sc3n2)c1`, the activation was inactive: -16%.

With `O=C(CCn1cnc2ccccc2c1=O)NCc1ccccc1Cl`, the activation was inactive: 6.61%.

For the molecule `CCc1nc2nc(C)c(NS(=O)(=O)c3ccc(C(C)(C)C)cc3)c(=O)n2[nH]1`, the activation is inactive: 21.2%.

For `O=C(CNC(=O)c1ccc(F)cc1)OCc1cc(=O)n2nc(C3CC3)sc2n1`, the activation is inactive: 17.7%.

On to `Cc1c(C(=O)Nc2cccc(C(F)(F)F)c2)oc2ccc3c(c12)C(=O)CC(C)(C)O3`, for which the activation is inactive: 14.9%.

As for `CCc1nn2c(=O)cc(COC(=O)COc3ccc(OC)cc3)nc2s1`, the activation is inactive: 5.24%.

Turning to `COC(=O)CN1C(=O)CSc2ccc(S(=O)(=O)Nc3cc(C)ccc3C)cc21`, the activation is inactive: 8.6%.

For the molecule `CCC(=O)N1c2ccccc2CC1C(=O)NCCc1ccc(OC)c(OC)c1` (configuration not stated), the activation is inactive: -13.4%.

With `CCOC(=O)c1sc2ncn(CC(=O)Nc3ccc(OCC)cc3)c(=O)c2c1C`, the activation was inactive: -4.91%.

For the molecule `COc1ccc(-c2nc(C)c(CCNS(=O)(=O)c3cc(Cl)ccc3Cl)s2)cc1`, the activation was inactive: -2.45%.

In the case of `CCc1ccc(S(=O)(=O)Nc2cc3c(C(=O)OCc4ccccc4)c(C)oc3c3ccccc23)cc1`, the activation is inactive: 6.78%.

For the molecule `Cc1c(NC(=O)c2ccc(-c3cccc([N+](=O)[O-])c3)o2)cccc1-c1nc2cc(Cl)ccc2o1`, the activation was inactive: -6.24%.

In the case of `COc1cccc(-n2c(=O)c3sc4ccccc4c3n(CC(=O)NC3CCCCC3)c2=O)c1`, the activation was inactive: -2.76%.

As for `CCOC(=O)c1cc2c(=O)n3ccccc3nc2n(CCOC)c1=NC(=O)c1c(-c2ccccc2Cl)noc1C`, the activation is inactive: -5.24%.

`Cn1c(=O)oc2cc(S(=O)(=O)NCCC(=O)Nc3ccc(F)cc3F)ccc21`: the activation is inactive: 6.64%.

Take `CCN(CC)S(=O)(=O)c1ccc(OC)c(-n2cnnn2)c1`: the activation was inactive: 0.0111%.

As to `Cc1cc(OCC(=O)Nc2ncn[nH]2)ccc1Cl`, the activation was inactive: 16.7%.

As for `Cc1ccc(S(=O)(=O)N(CC(=O)Nc2ccc3c(c2)OCO3)c2cc(Cl)cc(Cl)c2)cc1`, the activation is inactive: -8.53%.

For the molecule `CC(C)CCNC(=O)Cc1ccc(NC(=O)N2CCCCc3ccccc32)cc1`, the activation is inactive: -6.28%.

As to `COc1ccc(CNC(=O)Cn2c(=O)nc(-c3ccccc3)c3ccccc32)cc1OC`, the activation was inactive: -0.968%.

Regarding `CCCCC(=O)NC1CC(=O)N(c2ccc3c(c2)OCCO3)C1` (configuration not stated), the activation is inactive: -1.79%.

With `O=C(NCCC1=CCCCC1)c1ccc2c(c1)N(Cc1cccc(Cl)c1)C(=O)c1ccccc1S2=O` (configuration not stated), the activation is inactive: -21%.

Turning to `CCOc1cccc(C(c2c(C)n(C)n(-c3ccccc3)c2=O)c2c(C)n(C)n(-c3ccccc3)c2=O)c1OC`, the activation was inactive: 0.149%.

Regarding `COc1ccc2cc(C=O)ccc2c1`, the activation was inactive: -1.34%.

In the case of `CCOc1ccc(NC(=O)c2nn(C)c3c2CS(=O)(=O)c2ccccc2-3)cc1`, the activation is inactive: 10.2%.

In the case of `COc1ccc(CCNC(=O)CCCn2c(=O)c3ccccc3n(CC(=O)Nc3cc(Cl)ccc3C)c2=O)cc1OC`, the activation is inactive: 26.6%.

Turning to `CCOc1ccccc1NC(=O)Cn1c(=O)n(-c2ccc(F)cc2)c(=O)c2sc3ccccc3c21`, the activation was inactive: 11.8%.

For `Cc1ccc2nc(-c3cc(NC(=O)/C=C/c4ccccc4)ccc3Cl)oc2c1`, the activation is inactive: -4.87%.

In the case of `O=C(Nc1cccc(OCc2cc(=O)n3c4c(sc3n2)CCCC4)c1)c1ccc(F)cc1`, the activation was inactive: 22%.

For `Cc1ccccc1-c1noc(CCC(=O)Nc2cccc(C)c2C)n1`, the activation is inactive: -11%.

Consider `COc1ccc(C(=O)Nc2ccc3nc(N4CCC(C)CC4)cc(C)c3c2)cc1`, for which the activation was inactive: 26.3%.

Take `COc1cc(Cl)c(C)cc1NC(=O)c1cn(C2CCCC2)c(=O)c2c1c1ccccc1n2C`: the activation was inactive: -2.92%.

`O=C(c1cccc(Cl)c1)N1CCN(CCc2ccncc2)CC1`: the activation was inactive: 16.7%.

As for `CCOc1ccc(-c2nnc(SCC(=O)NCCc3ccc(OC)c(OC)c3)nc2-c2ccc(OCC)cc2)cc1`, the activation was inactive: 3.31%.

On to `COc1ccc(Cl)cc1-n1c(/C=C/c2cccc3ccccc23)nc2ccccc2c1=O`, for which the activation is inactive: -16.9%.

On to `COc1cc(C(=O)NS(=O)(=O)c2ccccc2C)ccc1Cc1cn(C)c2ccc(NC(=O)OC3CCCC3)cc12`, for which the activation was inactive: 46%.

As for `CCOCCCNC(=O)C(Cc1ccccc1)NS(=O)(=O)c1ccc2c(c1)c(=O)n(C)c(=O)n2C` (configuration not stated), the activation is inactive: -1.46%.

In the case of `COc1ccc(-c2nc(CSc3nncn4c3cc3occc34)c(C)o2)cc1`, the activation is inactive: -19.2%.

For the molecule `COc1cccc(Cn2c(CNC(=O)Cc3cccc(C)c3)nc3cccnc32)c1`, the activation was inactive: -12.8%.

For `Oc1ccc(/C=C/c2ccc(/C=C/c3ccc(O)cc3)c(Br)c2)cc1`, the activation was inactive: -3.45%.

As for `Cc1ccc(NC(=O)c2cccc3c2C(=O)N(C2CCCCC2)C3)c(C)c1`, the activation is inactive: -15.4%.

Regarding `COc1ccc(C2=C(C)C(=NCCCN3CCN(c4cc(C)ccc4C)CC3)NS2(=O)=O)cc1`, the activation is inactive: 38%.

Turning to `COc1ccc(N(CC(=O)Nc2cccc(Cl)c2C)S(=O)(=O)c2c(C)nn(C)c2C)cc1`, the activation was inactive: 0.51%.

For `COc1ccccc1-c1nc2c(c(SCC(=O)Nc3ccc(C)c(C)c3)n1)Cc1c(CO)cnc(C)c1O2`, the activation is inactive: -11.2%.

Turning to `Cc1ccccc1NC(=O)Cn1c(=O)oc2cc(Br)ccc21`, the activation was inactive: 7.74%.

`O=C(c1cc2c(s1)-c1ccccc1OC2)N1CCN(c2ccccc2F)CC1`: the activation was inactive: -12%.

Regarding `Cc1c(C)n(C)c2ccc(C(=O)NCCCN3CCCCC3C)cc12` (configuration not stated), the activation was inactive: -6.67%.

Take `CCOC(=O)C1CCCN(c2cc(C)nc3c(-c4ccccc4OC)c(C)nn23)C1` (configuration not stated): the activation was inactive: -18.8%.

On to `CCc1c(C)sc(NC(=O)c2cc(-c3cccc(Cl)c3)on2)c1C#N`, for which the activation is inactive: -1.19%.

Turning to `CC1=C(C(=O)OC(C)C)C(c2cccc([N+](=O)[O-])c2)C(C(=O)OC2CN(C(c3ccccc3)c3ccccc3)C2)=C(N)N1` (configuration not stated), the activation is inactive: 6.13%.

Take `Cc1ccc(C)c(NC(=O)Cn2cc(C(=O)c3ccco3)c3ccccc32)c1`: the activation was inactive: 3%.

With `CCCCN(CC)CCCNC(=O)c1nn(C)c2c1CS(=O)(=O)c1ccccc1-2`, the activation is inactive: 0.525%.

As for `CCCCCOc1c(Cl)cc(C(=O)N(Cc2ccc(C)o2)C2CCS(=O)(=O)C2)cc1Cl` (configuration not stated), the activation is inactive: -29.3%.

In the case of `COc1ccc(C)c2sc(N(Cc3cccnc3)C(=O)C3CCCCC3)nc12`, the activation was inactive: -10.6%.

Regarding `CCCN(CCC)CCCNC(=O)C1CCN(S(=O)(=O)CC)CC1`, the activation is inactive: -6.32%.

On to `COc1ccc(C)cc1NC(=O)c1c(C)oc2ncn(CC(C)C)c(=O)c12`, for which the activation is inactive: -24.2%.

As for `CCCn1cc(S(=O)(=O)c2ccccc2)c(=O)c2cc(F)c(N3CCCC(C)C3)cc21` (configuration not stated), the activation is inactive: -9.69%.

`CCOC(=O)c1ccc(N2C(=O)c3n[nH]c(-c4ccco4)c3C2c2ccc(O)cc2)cc1` (configuration not stated): the activation is inactive: 33.5%.

For the molecule `CCOC(=O)Cn1c(=O)n(C2CCCCC2)c2nc(-c3cccc(F)c3)nc(C(N)=O)c21`, the activation is inactive: -2.27%.

Regarding `Cc1cc(C2CCCCC2)n(O)c(=O)c1`, the activation is active: 77.3%.

Regarding `CC1=C(C(=O)Nc2ccccc2)C(c2cccnc2)n2nc(SCc3ccccc3Cl)nc2N1` (configuration not stated), the activation is inactive: -2.84%.

Turning to `Cc1ccc(S(=O)(=O)CC(=O)Nc2sc3c(c2C#N)CCCC3)cc1`, the activation was inactive: 13.3%.

As to `CCn1cc(CCC(=O)NCc2ccccc2OC)c2ccccc21`, the activation is inactive: -24.4%.

`Cc1ccc(CSCC(=O)N2CCN(c3ccccc3F)CC2)cc1`: the activation is inactive: -22.4%.

As for `Cc1ccc(S(=O)(=O)c2cc3cc(C(=O)O)ccc3oc2=O)cc1`, the activation was inactive: -1.27%.

As to `CCN[C@@H]1C[C@H](N)[C@@H](OC2OC(CN)=CCC2N)[C@H](O)[C@H]1O[C@H]1OC[C@](C)(O)[C@H](NC)[C@H]1O` (some centres not stated), the activation is inactive: 8.07%.

Consider `Cc1ccc(C)c(CN2C(=O)c3ccccc3S(=O)(=O)c3ccc(C(=O)N4CCN(c5ccccc5)CC4)cc32)c1`, for which the activation was inactive: -9.55%.

Turning to `COc1ccc(NC(=O)c2sc3nc(-c4ccc(OC)cc4)cc(C(F)(F)F)c3c2N)cc1`, the activation is inactive: 0.683%.

`C#CCSc1nc2sc3c(c2c(=O)n1Cc1ccccc1)CCCC3`: the activation was inactive: 7.01%.

With `COc1ccccc1OCCSc1nc2ccccc2n1CC(=O)N1CCOCC1`, the activation is inactive: -7.38%.

With `Cc1n[nH]c(C)c1S(=O)(=O)N(CC(=O)Nc1ccc(C(F)(F)F)cc1)c1ccc(C(C)C)cc1`, the activation is inactive: 12.4%.

For `Cc1ccc(NC(=O)CCS(=O)(=O)c2cccc3nonc23)cc1Cl`, the activation was inactive: 4.66%.
